Data taken from PubChem BioAssay AID1458 (National Center for Advancing Translational Sciences (NCATS), 2008).
Several values for one entry are separate records, joined by “and”; a condition that tells them apart may be missing. Equal entries are not always repeated. The whole screen tested about 210,000 compounds, of which about 5,900 (2.8%) were called active. Inconclusive results, whose numbers are uncertain, are shown with a selection of clear calls. Calls follow the shape of the dose curve; as a rule, active = well fitted activation curve with a large enough effect; inconclusive = small, poorly fitted or top-dose-only effect; inactive = no such curve, though single readings can be large or run the other way. A potency beside an inconclusive call is a rough fit, not a confirmed value.

assay: qHTS Assay for Enhancers of SMN2 Splice Variant Expression; settings: HEK293 SMN2-luciferase splicing reporter, luminescence, 30-36 h; activity change, positive = activation: at 46.1 µM (top of the series); also: nearly all actives have a fitted effect of over 55% in size; as to activity change, positive = activation: % of control where 0% means no effect
Procedure, shortened: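 qHTS luciferase splicing reporter: luminescence rises when SMN2 exon 7 is included in transfected HEK293 cells. Compound exposure lasted 30-36 h at 37C, with 4.5 mM final sodium butyrate as control, followed by a ONE-Glo read.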
Potency is read from the fitted curve at half-maximal effect; tags tell the direction and shape of the fitted curve.

| Structure (SMILES) | Potency | activity change, positive = activation |
| --- | --- | --- |
| COc1ccc(-c2nnc(SCC(=O)Nc3cccc(Cl)c3)o2)cc1 | active: 12.6 µM | – |
| CCN1C(=O)/C(=C/c2cccs2)S/C1=N\S(=O)(=O)c1ccc(C)cc1 | inconclusive: 5.62 µM [activator, single point] | – |
| COc1cc(S(C)=O)ccc1-c1nc2ncccc2[nH]1 (stereo not given) | inactive | – |
| CCOC(=O)c1nc(-c2ccc3c(c2)OCO3)[nH]c1C | inconclusive: 15.8 µM [activator, single point] | – |
| Fc1ccc(CSc2nnc3ccccn23)c(Cl)c1 | inconclusive: 28.2 µM [activator, single point] | – |
| Cc1nn2cc(-c3ccc(Cl)cc3)cnc2c1Cl | active: 5.62 µM | – |
| CCn1c(C)cc(C=C2C(=O)c3ccccc3C2=O)c1C | inconclusive: 14.1 µM [activator, single point] | – |
| C=CCNS(=O)(=O)c1ccc(OCC(=O)OC)cc1 | – | inactive: 23.6% |
| COc1ccc(-c2cc3nnc(-c4ccccc4)nc3s2)cc1 | active: 0.708 µM | – |
| O=C(NC1CCCCCCC1)NC1CCCCC1 | inconclusive: 35.5 µM [activator, single point] | – |
| Cc1cccc(/C=C2\CCC(=C3SCCCS3)C2=O)c1 | inconclusive: 1.26 µM [activator, partial curve] | – |
| CCOC(=O)CCc1c(C)c(C#N)c2nc3ccccc3n2c1-n1ccnc1C | – | inactive: -11.7% |
| COc1ccc2[nH]c3nc(SC(C)C)nnc3c2c1 | inconclusive: 0.1 µM [activator, single point] | – |
| Cc1cc(OCC(=O)N[C@@H](Cc2ccccc2)c2nc3ccccc3[nH]2)ccc1Cl | – | inactive: 4.24% |
| O=C1Cc2ccccc2N1c1ccccc1 | – | inactive: 4.64% |
| O=C(Nc1ccc(C(F)(F)F)cc1)N1CCC(N2CCCCC2)CC1 | – | inactive: -6.01% |
| Cc1nc(Cl)sc1C(=O)Nc1ccc(Cl)cc1 | – | inactive: -8.46% |
| COc1ccccc1CNC(=O)c1oc2ccc(S(=O)(=O)N3CCCC3)cc2c1C | – | inactive: -16.3% |
| CCCN(CCC)CCNC(=O)C1CCN(c2nc3ccc(CC)cc3s2)CC1 | – | inactive: 23.7% |
| S=c1nc[nH]c2c1sc1nc(N3CCOCC3)c3c(c12)CCCC3 | inconclusive: 3.55 µM [activator, single point] | – |
| COc1ccccc1NC(=O)NCC(c1ccco1)N1CCCCC1 (stereo not given) | – | inactive: -5.92% |
| CC(=O)Nc1ccc(NS(=O)(=O)C(F)(F)F)cc1 | inconclusive: 0.005 µM [activator, full curve] | – |
| Cc1ccc(N=C2S/C(=C\c3cn(CC(=O)O)c4ccccc34)C(=O)N2C)cc1 | inconclusive: 14.1 µM [activator, single point] | – |
| C=CCNc1nc(N)c(C(=C(C#N)C#N)c2ccc(Br)cc2)s1 | – | inactive: -15.2% |
| COC(=O)c1cc(NC(=O)/C=C/c2ccc3c(c2)OCO3)cc(C(=O)OC)c1 | inconclusive: 0.631 µM [activator, full curve, poor fit] | – |

| Structure (SMILES) | Potency | activity change, positive = activation |
| --- | --- | --- |
| c1ccc(N2CCN(c3ccccc3)C2c2cccs2)cc1 | inconclusive: 20 µM [activator, single point] | – |
| CCN(CC)S(=O)(=O)c1cc(NC(=O)C(C)N2CCc3ccccc32)ccc1C (stereo not given) | – | inactive: -59.6% |
| O=C(c1ccccc1)c1ccc2nc[nH]c2c1 | inconclusive: 11.2 µM [activator, partial curve, poor fit] | – |
| CCC(Sc1nc2ccccc2c(=O)n1CCN1CCOCC1)C(=O)NCc1cccnc1 (stereo not given) | inconclusive: 0.447 µM [activator, full curve, poor fit] | – |
| Cc1c(C(=O)Nc2cccc(Cl)c2)oc2ccc(S(=O)(=O)N3CCC4(CC3)OCCO4)cc12 | – | inactive: -11.8% |
| COc1ccc(C(=O)Nc2ccc(S(=O)(=O)NC(C)=O)cc2)cc1 | – | inactive: 4.17% |
| O=C1CCNc2ccc(-c3ccccc3)cc21 | inconclusive: 17.8 µM [activator, single point] | – |
| Cc1ccc(S(=O)(=O)Nc2cc(=O)[nH]c3c2CCC3)cc1 | – | inactive: -3.48% [at 9.22 µM] |
| CCOc1ccc(NC(=O)C(NS(=O)(=O)c2ccc3c(c2)CCN3C(C)=O)C(C)C)cc1 (stereo not given) | – | inactive: 9.79% |
| Oc1csc(Cc2nc(-c3ccccc3F)cs2)n1 | inconclusive: 12.6 µM [activator, single point] | – |
| COc1ccc(C(=O)CCNc2cccc(Cl)c2)cc1 | inconclusive: 15.8 µM [activator, single point] | – |
| Cc1ccc(O)c(N=Nc2ccccc2)n1 | inconclusive: 35.5 µM [activator, single point] and inconclusive: 2.51 µM [activator, full curve, poor fit] | – |
| CCc1ccc(C(=O)NCc2cccs2)s1 | inconclusive: 5.62 µM [activator, partial curve, poor fit] | – |
| Cc1sc(NC(=O)c2ccco2)nc1-c1ccccc1 | active: 4.47 µM | – |
| Cc1c(C)c2c(c(C)c1O)CCC(C)(COc1ccc(CC3SC(=O)NC3=O)cc1)O2 (stereo not given) | – | inactive: -6.73% |
| Cc1cc(=O)n2nc(N3CCC(C(=O)Nc4ccc(C)c(Cl)c4)CC3)sc2n1 | – | inactive: 4.53% |
| N=C1C(c2nc3ccccc3s2)=C(O)CN1Cc1ccco1 | inconclusive: 15.8 µM [activator, partial curve, poor fit] | – |
| CC(C)c1ccc(-c2c(C#N)c(N)nc(SCC(=O)N3CCCCCC3)c2C#N)cc1 | – | inactive: -18% |
| N#CC[n+]1cc(-c2ccc(Cl)cc2)n2c1CCC2 | inconclusive: 35.5 µM [activator, single point] | – |
| CC(=O)Nc1cc(C(=O)OCC(=O)c2ccccc2)ccc1C | active: 10 µM | – |
| COc1ccccc1N1CCN(CCn2c(=O)c3c(c4ccccc4n3C)n(C)c2=O)CC1 | inconclusive: 12.6 µM [activator, partial curve] | – |
| O=C(Nc1ccc(C2CC2(Cl)Cl)cc1)c1ccccc1Br (stereo not given) | inconclusive: 35.5 µM [activator, single point] | – |
| O=C(CCNC(=O)c1ccco1)Nc1ccc(N2CCOCC2)cc1 | – | inactive: 5.2% |
| Clc1ccc2oc(-c3ccccc3)cc(=NCCCN3CCOCC3)c2c1 | inconclusive: 31.6 µM [activator, single point] | – |
| c1ccc(-c2csc(N3CCOCC3)n2)cc1 | active: 11.2 µM | – |
